From PubChem BioAssay AID686979 (National Center for Advancing Translational Sciences (NCATS), 2013)
Several values for one entry are separate records, joined by “and”; a condition that tells them apart may be missing. Equal values may be shown once. The whole screen tested about 420,000 compounds, of which about 50,000 (12%) were called active. The inconclusive results got no clear call from the source; some entries with a clear call stand among them for comparison. The call rests on the fitted dose curve; in most records, active means well fitted inhibition curve with a large enough effect; inconclusive means small, poorly fitted or top-dose-only effect; inactive means flat fitted curve, though single readings scatter. Potencies of inconclusive entries are doubtful fits and often do not repeat.

Test: qHTS for Inhibitors of human tyrosyl-DNA phosphodiesterase 1 (TDP1): qHTS in cells in presence of CPT; further: nearly all actives have a fitted effect of over 55% in size
Conditions: chicken DT40 Tdp1-/-;hTDP1 cells + 20 nM CPT, ATP luminescence, 48 h; activity change, negative = growth inhibition: at 46.2 µM (top of the series) unless noted
Summary of the method: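 Chicken DT40 Tdp1-/- cells complemented with human TDP1, 400 cells/well, exposed to compounds plus 20 nM camptothecin for at least 48 h at 37 C; viability read as ATP content by CellTiter-Glo luminescence.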
On the % scale 0 is the no-effect control and ±100 the full control effect; potency means the concentration at half of the fitted maximal effect; tags describe the fitted curve by direction and shape.

| Structure (SMILES) | Potency | activity change, negative = growth inhibition |
| --- | --- | --- |
| Cc1cc(C(=O)C(C)Cl)c(C)n1Cc1ccco1 (stereo unspecified) | inconclusive: 25.9 µM [inhibitor, single point] |  |
| Cc1ccc(S(=O)(=O)N2CCCCC2)c(C)c1NS(C)(=O)=O | inactive |  |
| O=C1c2ccccc2C(=O)N1CCC#Cc1ccc2cc(C3(O)CCCCC3)oc(=O)c2c1 | inconclusive: 10.3 µM [inhibitor, partial curve, poor fit] |  |
| CCOC(=O)C(NC(=O)CCl)(Nc1sc(C)c(CC)c1C#N)C(F)(F)F (stereo unspecified) | inconclusive: 25.9 µM [inhibitor, single point] |  |
| CCN(CC)C(=O)n1c(Cc2ccccc2)nc2ccccc21 | inactive |  |
| COc1ccc(C2c3ccsc3CCN2C(=O)C(C)(C)C)cc1 (stereo unspecified) | inconclusive: 29.1 µM [inhibitor, single point] |  |
| Cc1ccccc1OCc1nc2ccccc2c(=O)n1/N=C/c1ccco1 | inconclusive: 29.1 µM [inhibitor, single point] |  |
| CC(C)Cc1cc(CNC(=O)C2CCC(=O)N(CCc3cccc(F)c3)C2)on1 (stereo unspecified) | inconclusive: 20.6 µM [inhibitor, single point] |  |
| COc1ccc(/C=N/NC(=O)c2cccc(OC(F)(F)C(F)F)c2)cc1O | inconclusive: 29.1 µM [inhibitor, single point] |  |
| COc1ccc(N2CCN(C(=O)COC(=O)[C@@H](NC(=O)OCc3ccccc3)C(C)C)CC2)cc1 | inconclusive: 29.1 µM [inhibitor, single point] |  |
| Cn1nc(-c2ccc(NCCO)c([N+](=O)[O-])c2)c2ccccc2c1=O | inactive |  |
| O=C(COC(=O)Cc1ccc(Cl)cc1)NC1CCCC1 | inactive |  |
| O=C(CC1N=C2c3ccccc3N=C(SCc3ccc(Cl)cc3)N2C1=O)NCc1cccs1 (stereo unspecified) | inactive |  |
| COc1ccc(S(=O)(=O)NCc2ccccn2)cc1NC(=O)c1ccc(Cl)cc1 | inconclusive: 29.1 µM [inhibitor, single point] |  |
| COc1ccc(N2CCN(C(=O)C3CCN(S(=O)(=O)c4cccs4)CC3)CC2)cc1 | inconclusive: 9.2 µM [inhibitor, partial curve] and inconclusive: 23.1 µM [inhibitor, single point] |  |
| Cc1ccc(CN2CCSc3ccc(C(=O)N4CCN(c5ccccc5)CC4)cc32)cc1 | inconclusive: 18.4 µM [inhibitor, single point] |  |
| CC(=O)c1cccc(OCC(O)CN2CCN(S(=O)(=O)c3c(F)cccc3F)CC2)c1 (stereo unspecified) | inconclusive: 25.9 µM [inhibitor, single point] |  |
| O=C1C(=Cc2cccc(Cl)c2)CCc2ccccc21 | inconclusive: 20.6 µM [inhibitor, single point] |  |
| COc1ccc(S(=O)(=O)N(C)c2ccc(C(=O)NCc3ccccn3)cc2)cc1 |  | inconclusive: -31.8% [inhibitor] |
| Cc1ccc(-n2c(Cc3ccccc3)nnc2SCc2nc(-c3cccs3)no2)cc1 | inconclusive: 18.4 µM [inhibitor, single point] |  |
| S=C(NNc1cccc(Cl)c1)NC1CCCCC1 | inconclusive: 20.6 µM [inhibitor, single point] |  |
| Cc1cc(C)nc(N/N=C/c2cc(C)n(CC(F)(F)F)c2C)n1 | inconclusive: 29.1 µM [inhibitor, single point] |  |

| Structure (SMILES) | Potency | activity change, negative = growth inhibition |
| --- | --- | --- |
| CCN(CC(=O)NCc1ccc(Cl)cc1)C(=O)CN1C(=O)NC(CC)(c2ccccc2)C1=O (stereo unspecified) | inactive |  |
| CCOC(=O)c1c(NC(=O)Cc2cccs2)sc2c1CCCC2 | inconclusive: 32.6 µM [inhibitor, single point] |  |
| O=C(COC(=O)c1cccc(Br)c1)Nc1cccc2c1C(=O)c1ccccc1C2=O | inconclusive: 14.6 µM [inhibitor, single point] |  |
| CCOC(=O)[C@H](C)N1[C@H](C)[C@H](c2ccccc2)Oc2ccc(Cl)cc2S1(=O)=O | inconclusive: 29.1 µM [inhibitor, single point] |  |
| CC(C)c1ncc(CO)n1Cc1c(Cl)cccc1Cl | inconclusive: 29.1 µM [inhibitor, single point] |  |
| O=C(NNS(=O)(=O)c1ccc(F)cc1F)c1csc(-c2cccnc2)n1 | inactive |  |
| Cc1ccc(/C=C/c2onc(C)c2S(=O)(=O)N2CCC(C(=O)N3CCC(N(C)C(C)C)CC3)CC2)cc1 | active: 5.17 µM |  |
| O=S(=O)(NOCc1ccc(Cl)cc1)c1ccc(Cl)cc1 | inactive |  |
| COC(=O)c1cc(S(=O)(=O)NC2CCN(Cc3ccccc3)CC2)cn1C | inconclusive: 13 µM [inhibitor, single point] |  |
| CC(C)(C)c1nc2c(C#N)c(-c3ccc(Cl)cc3)ccn2n1 | active: 35.5 µM |  |
| O=C(NCc1ccco1)c1ccc2c(c1)C(=O)c1ccccc1-2 | inconclusive: 25.9 µM [inhibitor, partial curve] |  |
| Cc1ccc(C)c(CN2CCCN(Cc3ccc(F)cc3)S2(=O)=O)c1 | inconclusive: 29.1 µM [inhibitor, single point] |  |
| CCc1sc(C(=O)Nc2nccs2)cc1C | inconclusive: 29.1 µM [inhibitor, single point] |  |
| COc1ccccc1CNC(=O)COC(=O)Cc1ccc(Cl)cc1 | inactive |  |
| CCOC(=O)N1CCN(c2c(N3CCc4ccccc4C3)c(=O)c2=O)CC1 |  | inconclusive: -33% [inhibitor] |
| CN1C(=O)Cc2cc(S(=O)(=O)N3CCN(c4ccccc4F)CC3)ccc21 | inconclusive: 29.1 µM [inhibitor, single point] |  |
| CC[C@@]1(O)C[C@H](O[C@H]2C[C@H](N(C)C)[C@H](O[C@H]3C[C@H](O)[C@H](O[C@H]4CCC(=O)[C@H](C)O4)[C@H](C)O3)[C@H](C)O2)c2c(cc3c(c2O)C(=O)c2c(O)cccc2C3=O)[C@H]1C(=O)OC | active: 0.211 µM |  |
| COC(=O)C[C@H]1c2ccccc2S(=O)(=O)N1c1ccc(N(C)C)cc1 | inconclusive: 22.4 µM [inhibitor, single point] |  |
| COCC(=O)Nc1cc(C)cn(Cc2c(F)cccc2Cl)c1=O | inconclusive: 18.4 µM [inhibitor, single point] |  |
| Cc1ccc(-c2noc(C(C)NS(=O)(=O)c3ccc(C)cc3)n2)cc1 (stereo unspecified) | inconclusive: 23.1 µM [inhibitor, single point] |  |
| Fc1ccc(N2CCN(C3CCC(c4ccccc4)CC3)CC2)cc1 (stereo unspecified) | inactive |  |
| CCOCCCNC(=O)c1c(N)n(-c2ccc3c(c2)OCO3)c2nc3ccccc3nc12 | inactive |  |

| Structure (SMILES) | Potency | activity change, negative = growth inhibition |
| --- | --- | --- |
| CC(C)N1CCN(c2ccc(OC[C@H]3CO[C@](Cn4cncn4)(c4ccc(Cl)cc4Cl)O3)cc2)CC1 | inconclusive: 14.3 µM [inhibitor, single point] and inconclusive: 16.4 µM [inhibitor, single point] |  |
| O=C(O)C(Cc1cc(Cl)ccc1Cl)Sc1nc2ccccc2[nH]1 (stereo unspecified) | inconclusive: 29.1 µM [inhibitor, single point] |  |
| COc1ccc(OC)c(CN2CCC(Cc3ccccc3)CC2)c1 | inconclusive: 23.1 µM [inhibitor, single point] |  |
| CCN(CC)S(=O)(=O)c1ccc(Oc2ccccc2)c(N)c1 | inconclusive: 29.1 µM [inhibitor, single point] |  |
| COc1ccccc1-c1cc(C(=O)N2CCN(S(=O)(=O)c3ccc(C)cc3)CC2)[nH]n1 | active: 23.1 µM |  |
| COc1cc(CNC(=O)c2ccc(Cn3nc(C)c(Cl)c3C)o2)cc(OC)c1 | inconclusive: 18.4 µM [inhibitor, partial curve, poor fit] |  |
| OC[C@@H]1CN(Cc2ccc3c(c2)OCO3)C[C@H](n2cnc3c(NCc4ccco4)ncnc32)O1 | inconclusive: 29.1 µM [inhibitor, single point] |  |
| Cc1ccccc1Nc1c(-c2ccccn2)nc2c(C)cccn12 | inconclusive: 29.1 µM [inhibitor, single point] |  |
| O=C1/C(=C/C=C/c2ccco2)SC(=S)N1NS(=O)(=O)c1ccccc1 |  | inconclusive: -33.1% [inhibitor] |
| Cc1cc(NC(=O)CSc2nccn2-c2cccc(C)c2C)no1 | inconclusive: 29.1 µM [inhibitor, single point] |  |
| Cn1c(=O)n(CCO)c(=O)c2c1nc(Br)n2Cc1ccccc1 | inactive |  |
| CC(C)c1ccc(C2=CC(c3ccc(C(C)C)cc3)n3nnnc3N2)cc1 (stereo unspecified) | active: 14.6 µM |  |
| COc1cc(C(=O)Nc2ccc(Nc3ccccc3)cc2)cc(OC)c1OC | inconclusive: 23.1 µM [inhibitor, single point] |  |
| COc1cccc(CNC(=O)c2ccccc2NC(=O)C2=C(C)OCCS2)c1OC | active: 18.4 µM |  |
| CC(C)Oc1ccc(CCc2n[nH]c(=S)n2-c2ccccc2)cc1 | inconclusive: 18.4 µM [inhibitor, partial curve] |  |
| O=C(Nc1c[nH]c(=O)[nH]c1=O)c1cc([N+](=O)[O-])cc([N+](=O)[O-])c1 | inactive |  |
| O=C1C2CCCN2C(=O)N1CCCCN1CCN(c2cccc(C(F)(F)F)c2)CC1 (stereo unspecified) | inactive |  |
| Cc1ccccc1NC(=O)c1ccc(CN(c2ccccc2)S(=O)(=O)c2ccccc2)cc1 | inconclusive: 29.1 µM [inhibitor, single point] |  |
| COc1cc(OC)cc(-c2cc3nc(C)c(CCC(=O)Nc4nc(C)cs4)c(C)n3n2)c1 | active: 18.4 µM |  |
| COc1ccc(NC(=O)C2C(c3ccccc3)C2(Cl)Cl)cc1 (stereo unspecified) | inconclusive: 29.1 µM [inhibitor, single point] |  |
| O/N=C1\CC/C(=N\O)c2nn(-c3ccc(Cl)cc3Cl)nc21 | active: 25.9 µM |  |
| O=C(Nc1cccc(F)c1)c1ccc(Cn2cc([N+](=O)[O-])cn2)o1 | inactive |  |
